Results on 90 compounds are retold here after PubChem BioAssay AID463173 (ICCB-Longwood Screening Facility, Harvard Medical School, 2010).

Structures are written as SMILES. Hit rate of the full screen: of about 52,000 compounds, about 1,700 (3.3%) were called active. Rule as the data show it: active = survival mostly below about 52% (no sharp cut-off); inactive = mostly above about 56%. Some of the results follow.

This assay has as its system Wild type. Description: growth inhibition of S. aureus wild type versus tarO mutant, primary screen, teichoic acid synthesis inhibitors, RN4220, OD600 (AID 463173). To be noted: S. aureus RN4220 wild type/DeltatarO growth, OD600, 18 h, active compounds read low, screened at 18.75 µg/mL (by protocol).
On to `CCc1ccc2oc(-c3cccc(NC(=O)COc4ccccc4Cl)c3)nc2c1`, for which the survival was inactive: 82%.

As to `CCC(CC)C(=O)Nc1nnc(C(C)(C)C)s1`, the survival was inactive: 112%.

For `CCN(CC)C(=O)c1ccc2c(c1)N(Cc1ccccc1F)C(=O)c1ccccc1S2=O` (stereo not given), the survival was inactive: 134%.

Consider `COc1cc(NC(=O)C(CC(C)C)N2Cc3ccccc3C2=O)cc(OC)c1` (stereo not given), for which the survival was inactive: 120%.

With `CCOc1ccc(NC(=O)CSc2nc3ccsc3c(=O)n2CC)cc1`, the survival was inactive: 72%.

`CCCCOc1ccc(CNC(=O)c2cnc3sc(N4CCCCCC4)nn3c2=O)cc1`: the survival is inactive: 91%.

For `CCCCNC(=O)CCn1nc(-c2ccc(Cl)cc2)c2ccccc2c1=O`, the survival is inactive: 81%.

As for `Cc1cccc(C(=O)n2nc(-c3cccnc3)nc2NCc2ccc(F)cc2)c1`, the survival is inactive: 75%.

On to `Cc1c(C(=O)NCc2cccc(F)c2)oc2c1-c1[nH]ncc1CC2`, for which the survival is inactive: 81%.

On to `Cc1ccc2sc(NC(=O)/C=C/C(=O)O)nc2c1`, for which the survival was inactive: 112%.

For the compound `Cc1ccc(NC(=O)Cn2c(=O)nc(-c3ccccc3)c3ccccc32)cc1`, the survival was inactive: 102%.

As to `Cn1c(=O)[nH]c(=O)c2c1nc(CN1CCN(c3ccccc3)CC1)n2Cc1c(F)cccc1Cl`, the survival was inactive: 73%.

`Cc1cccc(NC(=O)c2ccc3[nH]c(C)cc(=O)c3c2)c1`: the survival was inactive: 114%.

Take `CC(C)CCNC(=O)c1cc(-c2ccc(Br)s2)nc2ccccc12`: the survival is inactive: 91%.

Consider `COc1ccc(-c2cc(C)no2)cc1S(=O)(=O)N1CCCC(C)C1` (stereo not given), for which the survival was inactive: 81%.

`CCC(=O)N1CCc2cc(S(=O)(=O)NC(Cc3ccccc3)C(=O)NCc3ccccc3OC)ccc21` (stereo not given): the survival was inactive: 74%.

Turning to `CC(C)(C)c1ccc(C(=O)Nc2ccc(NC(=O)c3ccc(Cl)c(Cl)c3)cc2)cc1`, the survival is inactive: 152%.

For the compound `COc1cccc(NC(=O)Nc2ccc3snnc3c2)c1`, the survival was inactive: 85%.

On to `COc1cc([N+](=O)[O-])ccc1NC(=O)N1CCC2(CC1)Nc1ccccc1-n1cccc12`, for which the survival was inactive: 32%.

For `COc1ccc2cc3cc(C(=O)N4CCN(c5cccc(C(F)(F)F)c5)CC4)sc3nc2c1`, the survival is inactive: 113%.

Turning to `CCn1cc(C(=O)NCCN(CC(C)C)CC(C)C)c(=O)c2cc(S(=O)(=O)N(C)C3CCCCC3)ccc21`, the survival is inactive: 87%.

For `COc1ccc(-c2nc3sc(CCNC(=O)C(=O)Nc4cc(F)ccc4F)c(C)n3n2)cc1`, the survival is inactive: 55%.

In the case of `COc1ccccc1CNc1nc2ccccc2c2nc(-c3cccc(C)c3)nn12`, the survival is active: 9%.

As for `Cc1cccc(CCNC(=O)c2cc3c(=O)[nH]c4ccc(C)cc4c3s2)c1`, the survival is inactive: 66%.

For the compound `COc1ccc(NC(=O)c2nnn(CC(=O)Nc3cccc(C)c3C)c2N)c(OC)c1`, the survival was inactive: 47%.

On to `Cn1c(=O)n(C)c2cc(N3CCOCC3)c(NC(=O)c3ccc(C(C)(C)C)cc3)cc21`, for which the survival is inactive: 75%.

Consider `CCOCCCn1c(SCC(=O)NCc2ccccc2)nc2c(sc3ccccc32)c1=O`, for which the survival is active: -6%.

With `CC1CCN(c2ccc(C(=O)O)cc2)CC1`, the survival is inactive: 107%.

On to `CCCCOc1ccccc1Cn1c(=O)sc2ccccc21`, for which the survival is active: -4%.

Regarding `Cc1cccc(NC(=O)CN(C)S(=O)(=O)c2ccc3c(c2)CCC(=O)N3)c1C`, the survival was inactive: 82%.

As for `Clc1cc2c(cc1C=Nc1ccc(N3CCOCC3)cc1)OCO2`, the survival is inactive: 109%.

`CCOc1ccc(C(=O)Nc2cccc(NC(=O)c3ccc(Cl)cc3Cl)c2)cc1`: the survival is inactive: 88%.

Regarding `CSc1ccc(CNC(=O)c2sc3ncnc(N(C)C4CCCCC4)c3c2C)cc1`, the survival was inactive: 75%.

Regarding `Cc1cccc(C(=O)N2c3ncnn3C3(CCCCC3)[C@@H]3CCCC[C@@H]32)c1`, the survival was inactive: 81%.

`Cc1ccc(Nc2nc3ccccc3nc2-n2nc(C)cc2C)c(Cl)c1`: the survival was inactive: 88%.

In the case of `CCc1cccc(N2C(=O)CS(=O)(=O)C23C(=O)N(Cc2ccccc2)c2ccc(C)cc23)c1` (stereo not given), the survival is inactive: 77%.

On to `Cc1c(C(=O)Nc2ccc(F)cc2)oc2ccc(S(=O)(=O)N3CCCCCC3)cc12`, for which the survival was inactive: 95%.

Take `Cc1cccc(Nc2cc(C)nc(-n3nc(C)cc3C)n2)c1`: the survival is inactive: 56%.

For the compound `CCOc1ccc(CN2C(=O)C(=O)c3cccc(C)c32)cc1OC`, the survival is inactive: 91%.

On to `O=C(CSc1nnc(COc2ccc(F)cc2)o1)N1c2ccccc2CCc2ccccc21`, for which the survival is inactive: 115%.

With `CCOC(=O)c1cnc2ccccc2c1NCCCO`, the survival is inactive: 113%.

On to `CCOC(=O)c1cccc(NS(=O)(=O)c2ccc(-c3coc(C)n3)cc2)c1`, for which the survival was inactive: 99%.

With `COc1ccc(-c2cc(C(F)(F)F)n3ncc(-c4ccccc4)c3n2)cc1`, the survival is inactive: 65%.

`COC(=O)c1ccc2c(=O)n(CCc3ccc(S(N)(=O)=O)cc3)c(SCC(=O)C(C)(C)C)nc2c1`: the survival is inactive: 59%.

As to `CCOc1ccc2nc(NCCCNS(=O)(=O)c3ccccc3)c(C#N)cc2c1`, the survival is inactive: 120%.

For the compound `COc1cc2c(cc1NC(=O)COc1ccc(Br)cc1)oc1ccccc12`, the survival is inactive: 86%.

For `Cc1cc(C)c(NC(=O)C2CCN(C(=O)N3CCOc4ccccc43)CC2)c(C)c1`, the survival is inactive: 94%.

Turning to `Cc1ccc(-c2c3c(=O)n(C)c(=O)n(C)c3c3cnc4ccccc4n23)cc1`, the survival is inactive: 125%.

For `Cc1ccc(S(=O)(=O)CC(=O)Nc2nc3c(C)cccc3s2)cc1`, the survival was inactive: 75%.

In the case of `Cc1ccc(N2CCN(Cc3nnc(-c4ccccc4F)o3)CC2)c(C)c1`, the survival is active: 15%.

Take `CSc1ccc(/C=C/c2nc3ccccc3n2S(=O)(=O)c2ccc(Br)cc2)cc1`: the survival is inactive: 60%.

In the case of `CC(=O)N1CCc2cc(Br)cc(S(=O)(=O)NCCc3cccc(C)c3)c21`, the survival was inactive: 78%.

In the case of `CS(=O)(=O)N(CC(=O)Nc1cccnc1)c1ccc(Cl)cc1`, the survival is inactive: 85%.

As to `CCOC(=O)c1c(C)[nH]c(C)c1S(=O)(=O)N1CCCC(C(=O)Nc2cccc(CC)c2)C1` (stereo not given), the survival is inactive: 87%.

For the compound `COc1cccc(NC(=O)/C(C#N)=C/c2c(C)n(Cc3ccccc3)c3ccccc23)c1`, the survival is inactive: 80%.

In the case of `CCOc1ccc(NC(=O)CCc2c(C)nc3nc(-c4cc(OC)cc(OC)c4)nn3c2C)cc1`, the survival is inactive: 88%.

On to `COc1ccc(-c2[nH]c3c(c2-c2c(-n4cccc4)n(C)c(=O)[nH]c2=O)c(=O)[nH]c(=O)n3C)cc1F`, for which the survival is inactive: 84%.

As to `COc1ccccc1Nc1nc(N)nc(N)c1S(=O)(=O)c1ccccc1`, the survival is inactive: 106%.

Regarding `COc1ccc(-n2nnc(-c3nsc(NC(=O)c4cccc(C)c4)n3)c2C)cc1OC`, the survival was inactive: 78%.

`O=C(Nc1ccc(Cl)c(C(F)(F)F)c1)c1nc2ccccc2nc1N1CCCCC1`: the survival is inactive: 99%.

In the case of `COc1cc(C(=O)OCn2c(=O)oc3ccccc32)cc(OC)c1OC`, the survival is inactive: 101%.

For `Fc1ccc(C(NCCc2ccc(Cl)cc2)c2nnc(-c3ccccc3Cl)o2)cc1` (stereo not given), the survival was active: 11%.

As to `COCCCNc1nc(CC(C)C)nc2c1nnn2Cc1ccccc1`, the survival was inactive: 109%.

Take `CSc1ncc(Cl)c(C(=O)N(C)c2ccccc2)n1`: the survival was inactive: 111%.

`CCN1CCN(c2ncc3c(n2)CCN(Cc2cccc(F)c2F)C3)CC1`: the survival is inactive: 56%.

Take `Cn1c(SCC(=O)Nc2nc3ccccc3s2)ncc(C(=O)Nc2ccc(Cl)cc2)c1=O`: the survival was inactive: 77%.

Take `CCOCCCNC(=O)c1cn(CC(C)C)c(=O)c2c1c1ccccc1n2C`: the survival is inactive: 87%.

As to `COc1cccc(NC(=O)Cn2nnc(C(=O)NCc3ccc4c(c3)OCO4)c2N)c1`, the survival is inactive: 81%.

As to `N#CC(C#N)=Cc1ccc(-c2cccc(C(F)(F)F)c2)o1`, the survival is inactive: 122%.

Turning to `COC(=O)c1ccccc1NC(=O)c1nn(C)c2c1COc1ccccc1-2`, the survival was inactive: 89%.

For `Cc1cccn2c(=O)c3cc(C#N)c(=O)n(-c4nnc(SCc5ccc(F)cc5)s4)c3nc12`, the survival was inactive: 127%.

As to `CN(C)N1C(=O)CC(n2cnc3ccccc32)C1=O` (stereo not given), the survival is inactive: 115%.

As for `Cc1cc(C)c(NC(=O)CSc2nc(=O)n(Cc3cccnc3)c3c2CCC3)c(C)c1`, the survival is inactive: 126%.

With `COc1ccccc1Nc1ncc2c(n1)CCN(Cc1cc(F)cc(F)c1)C2`, the survival is inactive: 82%.

For the compound `COc1ccc(N2CCN(C3(c4ccccc4)C(=O)c4ccccc4C3=O)CC2)cc1`, the survival was inactive: 92%.

Take `Cc1ccc(Cn2c(CO)cnc2SCC(=O)NCc2ccccc2Cl)cc1`: the survival was inactive: 80%.

As for `Cc1ccc(Cl)cc1N(C)C(=O)c1cc2c(Cl)nc3ccccc3c2s1`, the survival was inactive: 70%.

Turning to `Cc1cc(C)c2nc(NCCNC(=O)C3CCCCC3)c(C#N)cc2c1`, the survival is inactive: 101%.

As to `CCCCCCNC(=O)c1c[nH]c2ccc(S(=O)(=O)N(C)c3ccc(C(C)C)cc3)cc2c1=O`, the survival is inactive: 74%.

As for `N#C/C(=C/c1ccccc1Cl)c1nc2ccccc2c(=O)[nH]1`, the survival is inactive: 65%.

As for `Cc1nc2ccccn2c1C(=O)NC1CCCC1`, the survival was inactive: 103%.

`O=C(C1CCC(Cn2c(=O)c3sccc3n(Cc3cccc(F)c3)c2=O)CC1)N1CCOCC1` (stereo not given): the survival is inactive: 65%.

On to `C=CCOc1c(Br)cc(CNCCCN2CCOCC2)cc1OC`, for which the survival is inactive: 104%.

Take `CC(=O)Nc1ccc(Nc2nc3c(S(=O)(=O)c4cc(C)ccc4C)nnn3c3ccsc23)cc1`: the survival was inactive: 98%.

Consider `Cc1cc2nn(-c3ccc(F)cc3)nc2cc1NC(=O)c1cccc([N+](=O)[O-])c1C`, for which the survival is inactive: 75%.

On to `COc1cccc(OC(=O)CSc2nnc(-c3cccs3)o2)c1`, for which the survival was inactive: 117%.

`Cc1cccc(C(=O)Nc2cc3nn(-c4ccc(C(C)C)cc4)nc3cc2C)c1`: the survival was inactive: 65%.

Take `COC(=O)c1ccc(Nc2nc(-c3ccccc3Cl)nc3ccccc23)cc1`: the survival is inactive: 36%.

On to `Clc1cccc(-c2nc3ccccn3c2Nc2ccc3c(c2)OCCO3)c1`, for which the survival is inactive: 77%.

`COc1ccc(N2C(=O)CSC23C(=O)N(CC(=O)Nc2ccccc2F)c2ccccc23)cc1` (stereo not given): the survival is inactive: 126%.
